Source: PMC6374363
These are yes or no findings as the source states them, for the method shown. In cells and extracts the contact can be indirect. Some entries that bind do so weakly or less than the wild type. Where a sequence is shown, tags or fusion partners need not be part of it.

Key:
Assay in all cases: co-IP; B16-F1 cells co-expressing GFP-BRCA2 truncations and MEILB2-MYC; extract on GFP-trap_MA beads 2 h at 4 °C; wash with high-salt buffer (400 mM KCl); immunoblot ('GFP pull-down assay')
[1] = biological target: T1, GFP-BRCA2-MBD (a.a. 2117–2339) (mouse) (UniProt P97929)
T1 sequence: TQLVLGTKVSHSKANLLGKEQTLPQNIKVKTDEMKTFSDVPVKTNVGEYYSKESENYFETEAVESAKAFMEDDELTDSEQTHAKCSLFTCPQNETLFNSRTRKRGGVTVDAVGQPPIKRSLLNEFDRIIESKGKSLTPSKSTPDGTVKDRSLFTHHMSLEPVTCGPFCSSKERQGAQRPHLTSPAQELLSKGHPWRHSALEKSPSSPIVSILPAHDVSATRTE

[2] = biological target: T2, GFP-BRCA2-C ΔMBD (a.a. 2340–3329) (mouse) (UniProt P97929)
T2 sequence: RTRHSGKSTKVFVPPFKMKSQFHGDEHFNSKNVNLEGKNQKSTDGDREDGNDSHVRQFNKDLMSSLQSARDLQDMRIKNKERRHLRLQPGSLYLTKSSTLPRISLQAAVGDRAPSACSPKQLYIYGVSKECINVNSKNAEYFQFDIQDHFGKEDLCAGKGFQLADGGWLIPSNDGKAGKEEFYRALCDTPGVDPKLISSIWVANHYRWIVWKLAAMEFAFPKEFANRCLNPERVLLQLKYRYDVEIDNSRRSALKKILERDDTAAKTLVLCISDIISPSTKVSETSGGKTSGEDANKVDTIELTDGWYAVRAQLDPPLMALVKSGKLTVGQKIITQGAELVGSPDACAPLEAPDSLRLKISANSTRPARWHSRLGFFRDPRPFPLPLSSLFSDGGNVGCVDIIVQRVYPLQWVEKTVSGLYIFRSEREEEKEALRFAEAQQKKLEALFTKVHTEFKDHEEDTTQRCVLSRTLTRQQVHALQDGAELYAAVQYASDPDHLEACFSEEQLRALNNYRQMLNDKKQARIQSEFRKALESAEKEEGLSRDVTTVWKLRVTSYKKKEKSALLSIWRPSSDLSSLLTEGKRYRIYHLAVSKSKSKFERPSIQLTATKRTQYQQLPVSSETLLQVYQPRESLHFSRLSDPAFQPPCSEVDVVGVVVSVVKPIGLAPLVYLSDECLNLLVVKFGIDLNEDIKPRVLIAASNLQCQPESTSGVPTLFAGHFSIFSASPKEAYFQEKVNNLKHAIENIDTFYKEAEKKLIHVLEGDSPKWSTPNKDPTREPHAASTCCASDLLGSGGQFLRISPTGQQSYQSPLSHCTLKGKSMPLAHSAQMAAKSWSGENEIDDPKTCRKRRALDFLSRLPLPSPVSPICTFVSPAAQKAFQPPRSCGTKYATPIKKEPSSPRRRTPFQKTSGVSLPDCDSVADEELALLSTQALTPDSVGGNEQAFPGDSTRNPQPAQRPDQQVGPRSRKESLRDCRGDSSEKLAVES

[3] = biological target: T3, GFP-BRCA2-C (a.a. 2036–3329) (mouse) (UniProt P97929)
T3 sequence: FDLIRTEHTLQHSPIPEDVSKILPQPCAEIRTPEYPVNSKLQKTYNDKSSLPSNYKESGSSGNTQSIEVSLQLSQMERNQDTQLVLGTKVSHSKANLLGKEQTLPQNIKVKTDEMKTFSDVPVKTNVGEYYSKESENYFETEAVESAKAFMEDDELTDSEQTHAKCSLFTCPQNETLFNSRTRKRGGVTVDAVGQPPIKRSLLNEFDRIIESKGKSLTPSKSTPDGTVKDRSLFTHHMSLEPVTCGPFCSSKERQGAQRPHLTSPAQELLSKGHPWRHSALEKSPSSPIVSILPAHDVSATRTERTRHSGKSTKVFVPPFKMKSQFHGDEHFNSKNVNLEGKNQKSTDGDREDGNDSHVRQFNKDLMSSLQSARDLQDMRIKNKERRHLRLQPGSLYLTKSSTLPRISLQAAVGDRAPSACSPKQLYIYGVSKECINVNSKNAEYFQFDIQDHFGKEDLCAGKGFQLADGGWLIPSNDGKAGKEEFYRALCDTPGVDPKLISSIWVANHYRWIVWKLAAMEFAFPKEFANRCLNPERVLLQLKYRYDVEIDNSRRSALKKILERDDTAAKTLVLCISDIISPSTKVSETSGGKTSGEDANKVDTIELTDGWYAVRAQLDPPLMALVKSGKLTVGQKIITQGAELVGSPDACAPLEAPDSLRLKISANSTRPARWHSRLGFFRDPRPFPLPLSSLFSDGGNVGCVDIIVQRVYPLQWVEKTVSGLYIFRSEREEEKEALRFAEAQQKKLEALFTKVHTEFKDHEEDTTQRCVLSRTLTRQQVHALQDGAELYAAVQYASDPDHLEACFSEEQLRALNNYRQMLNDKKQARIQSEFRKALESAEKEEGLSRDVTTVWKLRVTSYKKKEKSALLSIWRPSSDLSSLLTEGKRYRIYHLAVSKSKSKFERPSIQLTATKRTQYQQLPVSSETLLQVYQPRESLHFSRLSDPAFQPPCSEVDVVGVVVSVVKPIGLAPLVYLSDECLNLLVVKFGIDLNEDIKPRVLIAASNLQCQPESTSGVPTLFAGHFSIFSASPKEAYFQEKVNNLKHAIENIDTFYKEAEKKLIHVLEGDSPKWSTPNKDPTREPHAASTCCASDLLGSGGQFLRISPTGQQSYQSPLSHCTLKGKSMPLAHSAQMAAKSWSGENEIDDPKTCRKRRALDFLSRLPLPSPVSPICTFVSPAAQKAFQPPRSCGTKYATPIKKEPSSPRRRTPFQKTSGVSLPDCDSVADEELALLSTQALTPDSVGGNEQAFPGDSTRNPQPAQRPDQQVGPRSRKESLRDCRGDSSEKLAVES

B1: MEILB2-MYC (protein, UniProt Q9D4G2 1-338)
chain: MAATVGDGSGTEEACRNMESKEEFVKVRKKDLERLTTEVMQIRDFLPRILNGELLESFQKLKMVEKNLERKEQELEQLIMDREHFKARLETAQADSGREKKEKLALRQQLNEAKQQLLQQAEYCTQMGAVTCTLLWGVSSSEEVVKTILGGDKALKFFNITGQTMESFVKSLDGDVKEVDSDENQFVFALAGIVTNVAAIACGREFLVNSSRVLLDTMLQLLGDLKPGQCTKLKVLMLMSLYNVSINSKGLKYITESPGFIPLLWWLLSDPDAEVCLHTLRLIQSVVLEPDVFSKVASELQSSLPLQRILAMSKSRNSHLQSAAQELLEDLRALDCNV
- binding [1]: binds
- binding [2]: no binding
- binding [3]: binds
